T1: RBFOX1 RRM RbFoxmut (Fox-RRM*) (Homo sapiens, UniProt Q9NWB1 109-208, R118D;E147R;N151S;E152T)
T1 sequence: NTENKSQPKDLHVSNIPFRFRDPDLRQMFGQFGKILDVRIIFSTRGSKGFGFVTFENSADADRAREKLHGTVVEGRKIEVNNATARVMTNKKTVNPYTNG

B1: ACUUAUU (DNA:RNA)
RNA: GGGAGACCGGAAUUCAGAUUGUCCACUUAUUUUAAAUCCCGUCGUAGCCACCA
DNA 1: CAATCTGAATTCCGGTCTCCC
DNA 2: TGGTGGCTACGACGGGATT
B2: AGCAACC (DNA:RNA)
RNA: B1 RNA with C26G, U27C, U28A, U30C, U31C
DNA 1: CAATCTGAATTCCGGTCTCCC
DNA 2: TGGTGGCTACGACGGGATT
B3: AACCGUA (DNA:RNA)
RNA: B1 RNA with C26A, U27C, U28C, A29G, U31A
DNA 1: CAATCTGAATTCCGGTCTCCC
DNA 2: TGGTGGCTACGACGGGATT
B4: CGAUAUU (DNA:RNA)
RNA: B1 RNA with A25C, C26G, U27A
DNA 1: CAATCTGAATTCCGGTCTCCC
DNA 2: TGGTGGCTACGACGGGATT
B5: CUGUUAG (DNA:RNA)
RNA: B1 RNA with A25C, C26U, U27G, A29U, U30A, U31G
DNA 1: CAATCTGAATTCCGGTCTCCC
DNA 2: TGGTGGCTACGACGGGATT
B6: GGUCACG (DNA:RNA)
RNA: B1 RNA with A25G, C26G, U28C, U30C, U31G
DNA 1: CAATCTGAATTCCGGTCTCCC
DNA 2: TGGTGGCTACGACGGGATT
B7: AAUUAUU (DNA:RNA)
RNA: B1 RNA with C26A
DNA 1: CAATCTGAATTCCGGTCTCCC
DNA 2: TGGTGGCTACGACGGGATT
B8: GCUUGGG (DNA:RNA)
RNA: B1 RNA with A25G, A29G, U30G, U31G
DNA 1: CAATCTGAATTCCGGTCTCCC
DNA 2: TGGTGGCTACGACGGGATT
B9: UGUGCAC (DNA:RNA)
RNA: B1 RNA with A25U, C26G, U28G, A29C, U30A, U31C
DNA 1: CAATCTGAATTCCGGTCTCCC
DNA 2: TGGTGGCTACGACGGGATT
B10: UCCGGCG (DNA:RNA)
RNA: B1 RNA with A25U, U27C, U28G, A29G, U30C, U31G
DNA 1: CAATCTGAATTCCGGTCTCCC
DNA 2: TGGTGGCTACGACGGGATT
B11: CACCAAA (DNA:RNA)
RNA: B1 RNA with A25C, C26A, U27C, U28C, U30A, U31A
DNA 1: CAATCTGAATTCCGGTCTCCC
DNA 2: TGGTGGCTACGACGGGATT
B12: UUUAUCA (DNA:RNA)
RNA: B1 RNA with A25U, C26U, U28A, A29U, U30C, U31A
DNA 1: CAATCTGAATTCCGGTCTCCC
DNA 2: TGGTGGCTACGACGGGATT
B13: UCUGUGG (DNA:RNA)
RNA: B1 RNA with A25U, U28G, A29U, U30G, U31G
DNA 1: CAATCTGAATTCCGGTCTCCC
DNA 2: TGGTGGCTACGACGGGATT
B14: GCAAUAG (DNA:RNA)
RNA: B1 RNA with A25G, U27A, U28A, A29U, U30A, U31G
DNA 1: CAATCTGAATTCCGGTCTCCC
DNA 2: TGGTGGCTACGACGGGATT
B15: AUAUUGG (DNA:RNA)
RNA: B1 RNA with C26U, U27A, A29U, U30G, U31G
DNA 1: CAATCTGAATTCCGGTCTCCC
DNA 2: TGGTGGCTACGACGGGATT
B16: UUCUCAU (DNA:RNA)
RNA: B1 RNA with A25U, C26U, U27C, A29C, U30A
DNA 1: CAATCTGAATTCCGGTCTCCC
DNA 2: TGGTGGCTACGACGGGATT
B17: CACAUAG (DNA:RNA)
RNA: GGGAGACCGGAAUUCAGAUUGUCCCACAUAGUUAAAUCCCGUCGUAGCCACCA
DNA 1: CAATCTGAATTCCGGTCTCCC
DNA 2: TGGTGGCTACGACGGGATT
B18: UAAAGCC (DNA:RNA)
RNA: B17 RNA with C25U, C27A, U29G, A30C, G31C
DNA 1: CAATCTGAATTCCGGTCTCCC
DNA 2: TGGTGGCTACGACGGGATT
B19: GAGUUAG (DNA:RNA)
RNA: B17 RNA with C25G, C27G, A28U
DNA 1: CAATCTGAATTCCGGTCTCCC
DNA 2: TGGTGGCTACGACGGGATT
B20: GGAUGGC (DNA:RNA)
RNA: B1 RNA with A25G, C26G, U27A, A29G, U30G, U31C
DNA 1: CAATCTGAATTCCGGTCTCCC
DNA 2: TGGTGGCTACGACGGGATT
B21: UUAUGAC (DNA:RNA)
RNA: B1 RNA with A25U, C26U, U27A, A29G, U30A, U31C
DNA 1: CAATCTGAATTCCGGTCTCCC
DNA 2: TGGTGGCTACGACGGGATT
B22: GAAACAG (DNA:RNA)
RNA: B17 RNA with C25G, C27A, U29C
DNA 1: CAATCTGAATTCCGGTCTCCC
DNA 2: TGGTGGCTACGACGGGATT
B23: GUAGCGA (DNA:RNA)
RNA: GGGAGACCGGAAUUCAGAUUGUCCGUAGCGAUUAAAUCCCGUCGUAGCCACCA
DNA 1: CAATCTGAATTCCGGTCTCCC
DNA 2: TGGTGGCTACGACGGGATT
B24: ACCUAAC (DNA:RNA)
RNA: B1 RNA with U27C, U30A, U31C
DNA 1: CAATCTGAATTCCGGTCTCCC
DNA 2: TGGTGGCTACGACGGGATT
B25: UGUACGC (DNA:RNA)
RNA: B23 RNA with G25U, U26G, A27U, G28A, A31C
DNA 1: CAATCTGAATTCCGGTCTCCC
DNA 2: TGGTGGCTACGACGGGATT
B26: ACUAACU (DNA:RNA)
RNA: B1 RNA with U28A, U30C
DNA 1: CAATCTGAATTCCGGTCTCCC
DNA 2: TGGTGGCTACGACGGGATT
B27: AUCUAGG (DNA:RNA)
RNA: B1 RNA with C26U, U27C, U30G, U31G
DNA 1: CAATCTGAATTCCGGTCTCCC
DNA 2: TGGTGGCTACGACGGGATT
B28: UCUCUGC (DNA:RNA)
RNA: B1 RNA with A25U, U28C, A29U, U30G, U31C
DNA 1: CAATCTGAATTCCGGTCTCCC
DNA 2: TGGTGGCTACGACGGGATT
B29: UAUUCAA (DNA:RNA)
RNA: B1 RNA with A25U, C26A, A29C, U30A, U31A
DNA 1: CAATCTGAATTCCGGTCTCCC
DNA 2: TGGTGGCTACGACGGGATT
B30: CAUCUAU (DNA:RNA)
RNA: B17 RNA with C27U, A28C, G31U
DNA 1: CAATCTGAATTCCGGTCTCCC
DNA 2: TGGTGGCTACGACGGGATT
B31: AGGUCCC (DNA:RNA)
RNA: B1 RNA with C26G, U27G, A29C, U30C, U31C
DNA 1: CAATCTGAATTCCGGTCTCCC
DNA 2: TGGTGGCTACGACGGGATT

Residue numbers refer to the chain shown, from its start. This is one part of the list.

For the assay, the target named is T1, RBFOX1 RRM RbFoxmut (Fox-RRM*). Nature of the assay: EMSA; HiTS-Eq, 1 nM pool, 10 min; buffer printed only for the single-RNA assays: 10 mM Tris pH 7.5, 150 mM NaCl, 3.4 mM EDTA, 0.001% NP-40, 30 C. Conditions: tags: His6 N-terminal (pET28a); label: 5' 32P. In short, it runs like this:
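Purified wild-type or mutant RbFox RRM at increasing concentrations was equilibrated with 1 nM of 5′-radiolabelled RNA carrying 7 randomized nucleotides for 10 min in 50 µL. Unbound RNA was separated by 8% native PAGE and sequenced. Relative association constants came from read-count changes of each RNA species compared with the control reaction, normalised to the cognate motif.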
A general note: In EMSA bound probe runs differently from free probe, usually more slowly.
On to B1, for which the binding signal was 0.131 KA relative to UGCAUGU.
Turning to B2, the binding signal is 0.051 KA relative to UGCAUGU.
Then B3, with 0.115 KA relative to UGCAUGU; and B4, with 0.101 KA relative to UGCAUGU; and B5, with 0.165 KA relative to UGCAUGU.
For B6, the binding signal is 0.119 KA relative to UGCAUGU.
As for B7, the binding signal is 0.116 KA relative to UGCAUGU.
For the molecule B8, the binding signal was 0.111 KA relative to UGCAUGU.
For the molecule B9, the binding signal is 0.0994 KA relative to UGCAUGU.
For B10 the value was 0.114 KA relative to UGCAUGU.
On to B11, for which the binding signal is 0.104 KA relative to UGCAUGU.
As for B12, the binding signal is 0.0949 KA relative to UGCAUGU.
As to B13, the binding signal was 0.0928 KA relative to UGCAUGU.
Regarding B14, the binding signal is 0.0796 KA relative to UGCAUGU.
In the case of B15, the binding signal was 0.107 KA relative to UGCAUGU.
For the molecule B16, the binding signal was 0.108 KA relative to UGCAUGU.
Then B17, with 0.12 KA relative to UGCAUGU; and B18, with 0.0638 KA relative to UGCAUGU.
For B19 the value was 0.111 KA relative to UGCAUGU.
For B20 the value was 0.156 KA relative to UGCAUGU; for B21, 0.0826 KA relative to UGCAUGU.
For the molecule B22, the binding signal is 0.0918 KA relative to UGCAUGU.
For B23 the value was 0.075 KA relative to UGCAUGU.
In the case of B24, the binding signal was 0.0613 KA relative to UGCAUGU.
Consider B25, for which the binding signal was 0.101 KA relative to UGCAUGU.
Turning to B26, the binding signal was 0.105 KA relative to UGCAUGU.
As for B27, the binding signal was 0.111 KA relative to UGCAUGU.
As for B28, the binding signal is 0.0999 KA relative to UGCAUGU.
B29: the binding signal was 0.0869 KA relative to UGCAUGU.
Then B30, with 0.12 KA relative to UGCAUGU.
Regarding B31, the binding signal is 0.0699 KA relative to UGCAUGU.

The values are drawn from paper PMC9911399, “Two distinct binding modes provide the RNA-binding protein RbFox with extraordinary sequence specificity”.
